Assays:
[1] = target: T1, human growth hormone receptor on IM-9 cells (human, UniProt P10912 19-638); experiment: cell-based or functional assay
T1 sequence (looked up): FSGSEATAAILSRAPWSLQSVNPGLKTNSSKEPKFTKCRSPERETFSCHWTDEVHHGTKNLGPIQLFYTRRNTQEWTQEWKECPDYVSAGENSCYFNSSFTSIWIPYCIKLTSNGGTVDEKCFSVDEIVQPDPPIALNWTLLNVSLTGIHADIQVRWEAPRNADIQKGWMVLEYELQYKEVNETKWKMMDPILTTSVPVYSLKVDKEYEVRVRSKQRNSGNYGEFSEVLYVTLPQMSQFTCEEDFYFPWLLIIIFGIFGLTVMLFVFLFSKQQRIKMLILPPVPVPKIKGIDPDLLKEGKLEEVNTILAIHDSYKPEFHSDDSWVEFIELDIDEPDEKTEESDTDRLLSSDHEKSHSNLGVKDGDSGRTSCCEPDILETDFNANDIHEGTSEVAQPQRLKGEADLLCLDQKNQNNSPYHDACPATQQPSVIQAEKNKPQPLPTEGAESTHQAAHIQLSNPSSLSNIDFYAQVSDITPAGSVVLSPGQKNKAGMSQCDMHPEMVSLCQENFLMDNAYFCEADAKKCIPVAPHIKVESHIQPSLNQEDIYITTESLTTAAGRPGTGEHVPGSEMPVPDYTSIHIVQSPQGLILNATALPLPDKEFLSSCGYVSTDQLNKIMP

[2] = target: T2, rat GHR ECD (L43R), soluble, C-terminal 6His (rat, UniProt P16310 47-256); experiment: Biacore SPR; rat GHR ECD (L43R) on CM5 chip, GH injected; bivalent analyte model
T2 construct: also called soluble GHR ECD; rat GHR (L43R) extra cellular domain; not shown: C-terminal 6His tag of pET20b
T2 sequence (looked up): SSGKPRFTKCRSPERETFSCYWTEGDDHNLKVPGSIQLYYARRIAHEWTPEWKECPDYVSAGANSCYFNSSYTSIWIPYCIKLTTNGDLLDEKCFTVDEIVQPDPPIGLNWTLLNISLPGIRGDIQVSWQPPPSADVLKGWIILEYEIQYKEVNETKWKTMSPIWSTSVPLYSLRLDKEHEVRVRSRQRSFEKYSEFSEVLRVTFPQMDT

B1: hGH G120R (ligand)
chain: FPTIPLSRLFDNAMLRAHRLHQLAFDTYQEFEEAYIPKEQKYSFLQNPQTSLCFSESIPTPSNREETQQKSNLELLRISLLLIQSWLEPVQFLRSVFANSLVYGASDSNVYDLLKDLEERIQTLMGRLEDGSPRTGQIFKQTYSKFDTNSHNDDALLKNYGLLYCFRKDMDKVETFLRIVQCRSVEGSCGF
notes: also called G120R bearing hGH; hGH antagonist with the G120R substitution
For B1, the “EC50 (nM), STAT5 phosphorylation in IM-9 cells” value [1] was greater than 200000 nM, the Kd [2] was 10 nM and the koff [2] was 0.0022 s⁻¹. It also gave a kon [2] of 220000 M⁻¹ s⁻¹.

Source: patent US20060189529A1 (AMBRX, published 2006)
